Literature values as cited in PubChem BioAssay AID1259410 (Chemical Carcinogenesis Research Information System (CCRIS), 2018).
Further values from the same series stand in other lists.

Tested on: rodent tumor promotion studies, tumor incidence
Test: CCRIS tumor promotion studies
Conditions: Route [Carcinogen]: DERMAL, Route [Promoter]: DERMAL, Species: MOUSE
Source text: The CCRIS database contains chemical records with carcinogenicity, mutagenicity, tumor promotion, and tumor inhibition test results. It was developed by the National Cancer Institute (NCI). Data are derived from studies cited in primary journals, current awareness tools, NCI reports, and other sources. Test results have been reviewed by experts in carcinogenesis and mutagenesis.
CCRIS provides historical information from the years 1985 - 2011. It is no longer updated.
This is an archive assay for CCRIS tumor promotion studies.

CCCCCCCCCCCCCC(=O)O[C@@H]1[C@@H](C)[C@@]2(O)[C@@H](C=C(CO)C[C@]3(O)C(=O)C(C)=C[C@@H]23)[C@@H]2C(C)(C)[C@]12OC(C)=O
outcome (Carcinogen: (1AS,2S,3R,13CR)-1A,2,3,13C-TETRAHYDROBENZ[C]OXIRENO[5,6]BENZ[1,2-H]ACRIDINE-2,3 -DIOL, 93780-95-1, Carcinogen: (1AS,2S,3R,13CR)-1A,2,3,13C-TETRAHYDROBENZ[C]OXIRENO[5,6]BENZ[1,2-H]ACRIDINE-2,3 -DIOL, 93780-95-1, Doses [Carcinogen]: 0, 50, 200 NMOL IN 0.2 ML ACETONE ONCE (STUDY DURATION: 150 D), Doses [Carcinogen]: 0, 50, 200 NMOL IN 0.2 ML ACETONE ONCE (STUDY DURATION: 150 D), Doses [Promoter]: 0, 16 NMOL IN 0.2 ML ACETONE 2/WK FOR 20 WK BEGINNING 10 D POST CARCINOGEN DOSE (STUDY DURATION: 150 D), Doses [Promoter]: 0, 16 NMOL IN 0.2 ML ACETONE 2/WK FOR 20 WK BEGINNING 10 D POST CARCINOGEN DOSE (STUDY DURATION: 150 D), Strain/Sex: CD-1/FEMALE): skin: papilloma | outcome (Carcinogen: (1AS,13CR)-1A,2,3,13C-TETRAHYDROBENZ[C]OXIRENO[5,6]BENZ[1,2-H]ACRIDINE, 93781-05-6, Carcinogen: (1AS,13CR)-1A,2,3,13C-TETRAHYDROBENZ[C]OXIRENO[5,6]BENZ[1,2-H]ACRIDINE, 93781-05-6, Doses [Carcinogen]: 0, 50, 200 NMOL IN 0.2 ML ACETONE ONCE (STUDY DURATION: 150 D), Doses [Carcinogen]: 0, 50, 200 NMOL IN 0.2 ML ACETONE ONCE (STUDY DURATION: 150 D), Doses [Promoter]: 0, 16 NMOL IN 0.2 ML ACETONE 2/WK FOR 20 WK BEGINNING 10 D POST CARCINOGEN DOSE (STUDY DURATION: 150 D), Doses [Promoter]: 0, 16 NMOL IN 0.2 ML ACETONE 2/WK FOR 20 WK BEGINNING 10 D POST CARCINOGEN DOSE (STUDY DURATION: 150 D), Strain/Sex: CD-1/FEMALE): skin: papilloma | outcome (Carcinogen: (3R,4R)-3,4-DIHYDRO-DIBENZ[C,H]ACRIDINE-3,4-DIOL, 93780-91-7, Carcinogen: (3R,4R)-3,4-DIHYDRO-DIBENZ[C,H]ACRIDINE-3,4-DIOL, 93780-91-7, Doses [Carcinogen]: 0, 50, 200 NMOL IN 0.2 ML ACETONE ONCE (STUDY DURATION: 150 D), Doses [Carcinogen]: 0, 50, 200 NMOL IN 0.2 ML ACETONE ONCE (STUDY DURATION: 150 D), Doses [Promoter]: 0, 16 NMOL IN 0.2 ML ACETONE 2/WK FOR 20 WK BEGINNING 10 D POST CARCINOGEN DOSE (STUDY DURATION: 150 D), Doses [Promoter]: 0, 16 NMOL IN 0.2 ML ACETONE 2/WK FOR 20 WK BEGINNING 10 D POST CARCINOGEN DOSE (STUDY DURATION: 150 D), Strain/Sex: CD-1/FEMALE): skin: papilloma | outcome (Carcinogen: ((+/-)-(E)-4-METHYL-2[(E)-HYDROXYIMINO]-5-NITRO-6-METHOXY-3-HEXENAMIDE), Doses [Carcinogen]: 390 NMOL, Doses [Promoter]: 0, 1.7 NMOL FOR 20 WK (STUDY DURATION:20 WK), Doses [Promoter]: 0, 1.7 NMOL FOR 20 WK (STUDY DURATION:20 WK), Strain/Sex: SENCAR): skin: papilloma | outcome (Carcinogen: (+)-(11S,12S)-DIBENZO[A,1]PYRENE DIHYDRODIOL, 189880-64-6, Carcinogen: (+)-(11S,12S)-DIBENZO[A,1]PYRENE DIHYDRODIOL, 189880-64-6, Doses [Carcinogen]: 20, 40 NMOL IN 100 µL ACETONE ONCE, Doses [Carcinogen]: 20, 40 NMOL IN 100 µL ACETONE ONCE, Doses [Promoter]: 10 NMOL IN 100 µL ACETONE 2/WK FOR 24 WK BEGINNING 1 WK POST CARCINOGEN DOSE (STUDY DURATION: 25 WK), Strain/Sex: NMRI/FEMALE): skin: tumor | outcome (Carcinogen: (+/-)-ANTI-7,12-DIMETHYLBENZ[A]ANTHRACENE-3,4-DIOL-1,2-EPOXIDE [86941-58-4], Doses [Carcinogen]: 0, 10, 50, 100 NMOL IN 0.2 ML ACETONE ONCE (STUDY DURATION: 22 WK), Doses [Carcinogen]: 0, 10, 50, 100 NMOL IN 0.2 ML ACETONE ONCE (STUDY DURATION: 22 WK), Doses [Promoter]: 3.24 NMOL IN 0.2 ML ACETONE 2X/WK FOR 20 WK BEGINNING 2 WK POST CARCINOGEN DOSE(STUDY DURATION: 22 WK), Strain/Sex: SENCAR/FEMALE): skin: tumor | outcome (Carcinogen: (+/-)-SYN-7,12-DIMETHYLBENZ[A]ANTHRACENE-3,4-DIOL-1,2-EPOXIDE [86941-59-5], Doses [Carcinogen]: 0, 10, 50, 100 NMOL IN 0.2 ML ACETONE ONCE (STUDY DURATION: 22 WK), Doses [Carcinogen]: 0, 10, 50, 100 NMOL IN 0.2 ML ACETONE ONCE (STUDY DURATION: 22 WK), Doses [Promoter]: 3.24 NMOL IN 0.2 ML ACETONE 2X/WK FOR 20 WK BEGINNING 2 WK POST CARCINOGEN DOSE(STUDY DURATION: 22 WK), Strain/Sex: SENCAR/FEMALE): skin: tumor | outcome (Carcinogen: (-)-(11R,12R)-DIBENZO[A,L]PYRENE DIHYDRODIOL, 189880-63-5, Carcinogen: (-)-(11R,12R)-DIBENZO[A,L]PYRENE DIHYDRODIOL, 189880-63-5, Doses [Carcinogen]: 10, 20, 40 NMOL IN 100 µL ACETONE ONCE, Doses [Carcinogen]: 10, 20, 40 NMOL IN 100 µL ACETONE ONCE, Doses [Promoter]: 10 NMOL IN 100 µL ACETONE 2/WK FOR 24 WK BEGINNING 1 WK POST CARCINOGEN DOSE (STUDY DURATION: 25 WK), Strain/Sex: NMRI/FEMALE): skin: tumor | outcome (Carcinogen: (I)-11,12-DIBENZO[A,L]PYRENE-DIHYDRODIOL, 153857-27-3, Carcinogen: (I)-11,12-DIBENZO[A,L]PYRENE-DIHYDRODIOL, 153857-27-3, Doses [Carcinogen]: 40 NMOL IN 100 µL ACETONE ONCE, Doses [Promoter]: 10 NMOL IN 100 µL ACETONE 2/WK FOR 30 WK BEGINNING 1 WK POST CARCINOGEN DOSE (STUDY DURATION: 31 WK), Strain/Sex: NMRI/FEMALE): skin tumor
